Test results taken from article PMC4336329 (PLoS ONE, 2015).
The whole screen tested about 310,000 compounds, of which about 14,000 (4.5%) showed an effect of 50% or more. The effect is printed as a negative number. This is one part of the list.

Each compound was assayed against human ether-à-go-go-related gene (hERG) potassium channel (human, UniProt Q12809) (assay: primary screen, population patch clamp on CHO cells stably expressing hERG).
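Note: peak tail current of the secondary pulse compared with the same well before compound.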

Chain of human ether-à-go-go-related gene (hERG) potassium channel (Q12809 whole entry, looked up): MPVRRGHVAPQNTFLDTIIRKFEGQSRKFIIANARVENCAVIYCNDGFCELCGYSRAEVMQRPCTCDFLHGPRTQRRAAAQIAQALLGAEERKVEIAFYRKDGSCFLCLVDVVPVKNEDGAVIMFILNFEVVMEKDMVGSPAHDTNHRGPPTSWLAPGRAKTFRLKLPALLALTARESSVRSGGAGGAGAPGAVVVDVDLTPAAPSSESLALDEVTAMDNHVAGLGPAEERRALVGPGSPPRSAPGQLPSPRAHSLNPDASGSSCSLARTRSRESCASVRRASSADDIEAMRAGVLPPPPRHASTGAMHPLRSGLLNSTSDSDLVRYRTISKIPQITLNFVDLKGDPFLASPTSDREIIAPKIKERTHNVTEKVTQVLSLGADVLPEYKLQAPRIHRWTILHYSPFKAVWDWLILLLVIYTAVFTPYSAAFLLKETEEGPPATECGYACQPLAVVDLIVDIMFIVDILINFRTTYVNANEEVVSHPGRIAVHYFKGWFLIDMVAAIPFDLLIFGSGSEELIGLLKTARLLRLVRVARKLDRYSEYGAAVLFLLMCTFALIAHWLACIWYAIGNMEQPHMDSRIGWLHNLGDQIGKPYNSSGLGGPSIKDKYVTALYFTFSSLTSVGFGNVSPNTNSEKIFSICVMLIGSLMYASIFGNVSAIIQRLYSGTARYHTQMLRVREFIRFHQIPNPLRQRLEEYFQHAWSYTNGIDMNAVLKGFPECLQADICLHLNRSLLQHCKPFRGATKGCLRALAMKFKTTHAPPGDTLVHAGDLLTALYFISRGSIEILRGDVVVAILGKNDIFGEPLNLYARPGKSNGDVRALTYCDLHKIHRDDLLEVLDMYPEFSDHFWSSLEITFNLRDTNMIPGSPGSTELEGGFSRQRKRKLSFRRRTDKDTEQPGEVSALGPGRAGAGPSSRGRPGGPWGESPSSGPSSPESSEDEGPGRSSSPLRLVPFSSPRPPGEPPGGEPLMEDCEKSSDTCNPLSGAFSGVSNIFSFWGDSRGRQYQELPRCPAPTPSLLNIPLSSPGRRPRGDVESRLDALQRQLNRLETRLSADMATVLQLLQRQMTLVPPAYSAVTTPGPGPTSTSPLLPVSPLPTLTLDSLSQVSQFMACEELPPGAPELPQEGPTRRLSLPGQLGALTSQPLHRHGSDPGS

SMILES	hERG current change (%, negative = inhibition) at 10uM [%]
CSCC(=O)NC1CCCc2c1cnn2-c1cc(F)cc(F)c1 (stereo not drawn)	-12.6
COc1ccc(S(=O)(=O)Nc2cc3c4c(c2)CCC(=O)N4CCC3)cc1	-15
CCN(CC)S(=O)(=O)c1cccc(C(=O)OCC(=O)Nc2ccccc2OC(F)F)c1	-7.37
Cc1ccc(/C=C2/C(=O)NC(=O)N(CCc3ccc(F)cc3)C2=O)s1	17.9
Brc1ccc(OCCCN2CCOCC2)cc1.O=C(O)C(=O)O	-28.1
Cc1ccc(CNC(=O)CC(C)S(=O)(=O)c2ccc3c(c2)NC(=O)C(C)S3)cc1 (stereo not drawn)	-39.9
CC(C)C(C(=O)NCC1CCCO1)N(C(=O)CNS(=O)(=O)c1ccccc1)c1ccc(F)cc1 (stereo not drawn)	13.8
CC(Sc1ccc(S(=O)(=O)N2CCN(C)CC2)cn1)C(=O)NC1CCCCC1 (stereo not drawn)	-2.98
Cc1cccc(NC(=O)c2onc3c2CCCC3)c1C	7.58
Cc1noc(C)c1CSCC(=O)Nc1ccc(Br)cc1Cl	-27.3
O=C(O)c1ccc(C(=O)Nc2cccc3ccccc23)c(C(=O)O)c1	16.6
CC(C)(C)c1ccc(-n2ncc3c2CCCC3NC(=O)CN2CCCCC2=O)cc1 (stereo not drawn)	21.2
CCOc1ccc(Nc2nc(NCC3CCCO3)c3ccccc3n2)cc1.Cl (stereo not drawn)	-72.3
O=C(Oc1ccccc1)N1CCCC1	20.8
CCOP(=S)(OCC)SCC(=O)NC(C(=O)O)C(C)C (stereo not drawn)	7.13
O=C(Nc1ccc2c(c1)OCCO2)c1cncc(Br)c1	7.82
O=C(Nc1cccnc1)c1sc(Nc2ccccc2)nc1-c1ccccc1	-0.592
C=C(c1ccc(O)cc1)c1ccc(O)cc1	-15.5
Cc1ccc2c(Cl)cc(Cl)c(OCC(=O)NC(C)(C)C)c2n1	-7.42
CN1CCC(=NNC(=O)C(=O)Nc2cccc(Br)c2)CC1	8.18
Cc1ccc(NC(=O)c2ccc(=O)n(CC(=O)Nc3c(C)cc(C)cc3C)n2)cc1	-30.9
O=C(CSc1nc(C(F)(F)F)cc(=O)[nH]1)N1CCOCC1	3.21
CCOC(=O)c1c(CN2CCN(C)CC2)n(C)c2cc(Br)c(OC)cc12	-50.4

SMILES	hERG current change (%, negative = inhibition) at 10uM [%]
O=C(COC(=O)CCSc1ccc(Cl)cc1)NCc1ccccc1Cl	-5.97
O=C1C2CCCCC2C(=O)N1c1ccc(NC2CCN(Cc3ccccc3)CC2)c([N+](=O)[O-])c1 (stereo not drawn)	-42.1
CC(NCc1ccc(OCC(N)=O)cc1)C12CC3CC(CC(C3)C1)C2.Cl (stereo not drawn)	-11.2
N#CCCn1cc(C(=O)Nc2ccc(F)cc2)c(-c2ccc([N+](=O)[O-])cc2)n1	-57.1
CC(C)CC(=O)Nc1ccc(OCC(=O)O)cc1	8.76
CC(=O)c1cccc(NC(=O)CN(Cc2ccccc2)S(C)(=O)=O)c1	0.338
O=C(N=Nc1c(O)[nH]c2ccccc12)c1cccc(S(=O)(=O)N2CCCCC2)c1	7.99
COc1ccc(C2CC(C(F)(F)F)n3ncc(C(=O)Nc4c(C)n(C)n(-c5ccccc5)c4=O)c3N2)cc1 (stereo not drawn)	7.57
COc1ccccc1/C=N/N=C(/N)N[N+](=O)[O-]	-6.54
COc1ccc(S(N)(=O)=O)cc1N(C)S(=O)(=O)c1ccccc1	22.3
CCSc1oc(-c2ccccc2)nc1S(=O)(=O)c1ccccc1	-5.75
Fc1cccc(CCNCc2ccccn2)c1	-6.71
C[C@@H](CO)NC(=O)c1ccc2c3n(nc2c1)-c1ccc(Cl)cc1CO3	-1.96
O=C(Nc1nc(-c2ccc3c(c2)OCCO3)cs1)C1CCCC1	-8.69
Cc1cc(Cl)ccc1OC(C)C(=O)NCCc1ccc2c(c1)OCCO2 (stereo not drawn)	0.31
O=C(N/N=C/c1ccc(Cl)cc1Cl)C(=O)NC1CC1	17.4
COc1ccc(/C=C2\SC(=N)N(c3nccs3)C2=O)cc1OC	11.5
CCc1ccc(C(=O)NNC(=O)c2cccc(N3C(=O)CCC3=O)c2)cc1	17.2
CCc1cccc(NC(=O)c2cccc3c2C(=O)N(C2CCCCC2)C3)c1	19.4
Cc1ccc(C)c(NC(=O)COC(=O)c2nc(Cl)ccc2Cl)c1	5.77
COc1nc(-c2ccc3c(c2)OCO3)n(-c2ccc(NC(=O)CSc3ccccc3)cc2)n1	-31
O=C(COC(=O)c1ccc[nH]c1=O)Nc1ccc(S(=O)(=O)N2CCCC2)cc1	6.91
c1ccc2c(c1)[nH]c1c3ccccc3sc21	18.5

SMILES	hERG current change (%, negative = inhibition) at 10uM [%]
O=C(NCCN1CCOCC1)c1cccc(Br)c1	-3.21
O=C(NCCN1CCOCC1)c1cc(Cl)ccc1Cl	1.3
Cc1cccc(CCNC(=O)CN(C)S(=O)(=O)c2cnc[nH]2)c1	4.07
CC(C)CNCC(=O)N1c2ccccc2Sc2ccccc21.O=C(O)C(=O)O	-3.39
COc1cccc2cc(C(=O)OC3CCN(C)CC3)c(=O)oc12	0.927
CCCNS(=O)(=O)c1ccc(CCC(=O)N2CCOCC2)cc1	3.77
O=C(c1ccco1)N1CCCC(c2nc3c(nnn3Cc3ccccc3)c(=O)[nH]2)C1 (stereo not drawn)	-8.47
COCCn1c(SCC(=O)c2c(N)n(C3CC3)c(=O)[nH]c2=O)nc2ccccc21	15.5
CCOc1ccccc1-n1c(O)c(C=NCc2ccc3c(c2)OCO3)c(=O)[nH]c1=O	7.5
CCOc1ccc(NC(=O)CSCc2cnn(-c3ccccc3)c2-n2cccc2)cc1	-20.9
O=C(CCn1cnnn1)Nc1ccc(Cl)c(Cl)c1	11.3
CCCC(C)C(=O)NC1CCSC1=O (stereo not drawn)	2.34
CNC(=O)N1c2ccccc2NC(=O)CC1C (stereo not drawn)	9.32
O=S(=O)(NC1CCCC1)OCC(Cl)(Cl)Cl	-2.69
O=C1CCN(C(=O)c2ccc(Cl)cc2)N1	-19.3
O=C(/C=C/c1ccc(OCCCF)cc1)NCc1cccc(Cl)c1	-2.82
COc1ccc(NC(=O)C(=O)NCC(c2ccco2)N2CCc3ccccc3C2)cc1 (stereo not drawn)	-23.5
COc1ccc(-n2c(-c3cccc(OC)c3)nc(=S)c3c2CCCC3)cc1	8.47
CCc1nnc(NC(=O)c2nc(S(=O)(=O)Cc3cccc(C)c3)ncc2Cl)s1	-9.57
COc1ccc(N2CCN(CCCNS(=O)(=O)c3ccc4c(c3)oc(=O)n4C)CC2)cc1	-16.3
Cc1c(C(=O)N2CCOCC2)c(S(=O)(=O)Nc2cccc(C#N)c2)c(C)n1C	23
O=[N+]([O-])c1ccccc1S(=O)(=O)NC1CCCCCCC1	-0.427
COc1ccc2[nH]c(C(=O)N3CCCN(Cc4ccc(F)cc4)CC3)cc2c1	-43.4

SMILES	hERG current change (%, negative = inhibition) at 10uM [%]
COc1ccc(OC)c(CNCc2ccc3c(c2)OCO3)c1.O=C(O)C(=O)O	-4.43
Cc1cccc(N2CCN(C(=O)CCS(=O)(=O)c3ccc(Br)cc3)CC2C)c1 (stereo not drawn)	-23
Cn1cc(C(=O)N2CCC3(CC2)OCCO3)c2c3ccccc3n(C)c2c1=O	13.3
Cl.OC(COc1ccc(F)cc1)CN1CCN(c2ccccc2F)CC1 (stereo not drawn)	-66.6
CSc1nnc(OC(=O)N(C)C)n1-c1ccc(Cl)cc1	7.1
CC(=O)NCc1ccc(S(=O)(=O)NC2CCN(Cc3ccccc3)CC2)cc1	18
Cc1nccn1CCCNC(=O)c1nc(Cn2cc([N+](=O)[O-])cn2)no1	21.9
O=C(O)CC(CC(=O)NCC(O)c1ccccc1)c1ccccc1 (stereo not drawn)	6.24
NNc1nc2sc3c(c2c(=O)[nH]1)CCc1ccccc1-3	7.46
O=C(NC1CCCCCCC1)c1ccc(F)c(S(=O)(=O)N2CCOCC2)c1	9.88
CC1CCc2nn(CC(=O)NCCC3=CCCCC3)cc2C1 (stereo not drawn)	6.93
NCCCS(=O)(=O)O.O.[Na+]	4.88
O=C(NC1CCC(CC2CCC(NC(=O)C(Cl)Cl)CC2)CC1)C(Cl)Cl (stereo not drawn)	11.9
CC(=O)Nc1ccc(NC(=O)CSc2nc(C)nc3sc(C)c(C)c23)cc1	21.2
Cc1cc(-c2nc(-c3ccncc3)no2)ccc1[N+](=O)[O-]	-5.2
COC(=O)c1[nH]c2ccccc2c1NC(=O)CCN1CCSCC1	4.47
Cc1cccc(NC(=S)/N=C(\N)Nc2nc(C)c3cc(C)ccc3n2)c1	18.9
CN(C)CCCN(C(=O)c1ccc2c(c1)CCCC2)c1nc2ccc(F)cc2s1.Cl	-66.9
CCOC(=O)c1c(CC(C)C)csc1NC(C)=O	-2.62
CCCCCCCCCCCCCCCCn1cc[n+](C)c1.[Br-]	-18.4
CC(=O)c1ccc(Oc2ccc(C(C)=O)cc2)cc1	0.755
